# Results: PubChem BioAssay AID686978 (National Center for Advancing Translational Sciences (NCATS), 2013)
# Among all 420,000 compounds or so, about 64,000 (15%) were called active. Inconclusive means that the source gave no clear call. Such entries were picked first, then a sample of the others. Calls follow the shape of the dose curve; as a rule, active = well fitted inhibition curve with a large enough effect; inconclusive = small, poorly fitted or top-dose-only effect; inactive = flat fitted curve, though single readings scatter. No potency is given beside an inconclusive call; the fits are too rough.
# Assay: qHTS for Inhibitors of human tyrosyl-DNA phosphodiesterase 1 (TDP1): qHTS in cells in absence of CPT; also: nearly all actives have a fitted effect of over 55% in size
# Settings: DT40 Tdp1-/- hTDP1 cells, no CPT, ATP luminescence, 48 h; activity change, negative = growth inhibition: at 46.2 µM (top of the series) unless noted
# Summary of the method: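 Readout: luminescence from CellTiter-Glo after 30 min in the dark at RT. Cells: DT40 Tdp1-/- with stable hTDP1, 400/well. Exposure: compounds alone, ≥48 hr, 37 °C.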
# % is scaled to controls: 0 for no effect and ±100 for the full control effect; potency is read from the fitted curve at half-maximal effect; tags tell the direction and shape of the fitted curve.
Structure (SMILES),Potency,"activity change, negative = growth inhibition"
CCN(Cc1ccccc1)c1ccc(/C=N/NC(=O)c2cccc(S(=O)(=O)N3CCOCC3)c2)cc1,active: 13 µM,
O=[N+]([O-])c1ccc2c(c1)nc1n2CCSC1,"inconclusive [inhibitor, partial curve]",
O=C(Nc1cc(Cl)ccc1Cl)C1CC(=O)N(c2ccccc2)C1 (centres undefined),,inactive: -6.68%
CC[n+]1c(C)cc(C)n1-c1ccccc1,"inconclusive [inhibitor, partial curve, poor fit]",
Cc1nc(COc2ccccc2Cl)sc1-c1ccnc(N)n1,"inconclusive [inhibitor, partial curve]",
COc1ccc(NC(=S)NC(=O)c2cncc(Br)c2)cc1,"inconclusive [inhibitor, single point]",
O=C(O)C1CCN(C(=O)c2ccc(S(=O)(=O)N3CCCCCC3)cc2)CC1,,inactive: 0.93%
CCOc1ccc(NC(=O)CC2C(=O)N(c3ccccc3)C(=O)N2Cc2ccc3c(c2)OCO3)cc1 (centres undefined),"inconclusive [inhibitor, single point]",
COc1ccc(CCNS(=O)(=O)c2cccc(S(=O)(=O)N3CCCC3)c2)cc1OC,"inconclusive [inhibitor, single point]",
Cc1ccccc1S(=O)(=O)N1C[C@H]2CON(C)[C@H]2C[C@H]1c1cccc(Oc2ccccc2)c1,active: 18.4 µM,
COc1ccc(C(C)(NC(C)=O)c2nc(-c3ccc(F)c(Cl)c3)cs2)cc1 (centres undefined),active: 23.1 µM,
Cc1ccc(S(=O)(=O)Nc2ccc(C(N)=O)cc2)cc1[N+](=O)[O-],"inconclusive [inhibitor, single point]",
CCOc1ccc(-c2nnc3ccc(SCC(=O)NCc4ccco4)nn23)cc1,"inconclusive [inhibitor, single point]",
Brc1ccc(CNCc2cccs2)cc1,,inactive: -21.8%
CC(C)Sc1nc2c(c(=O)[nH]c(=O)n2C)n1CC(O)COc1ccccc1 (centres undefined),"inconclusive [inhibitor, single point]",
COC(=O)C1CCCN1C(=O)COc1ccc(Br)cc1Cl (centres undefined),"inconclusive [inhibitor, single point]",
COc1ccc2oc(=O)c(-c3csc(Nc4ccc(O)cc4)n3)cc2c1,active: 5.8 µM,
S=C(NCCN1CCOCC1)N1CCN(c2cccc(Cl)c2)CC1,"inconclusive [inhibitor, single point]",
Cc1nn(CC(=O)N2CCN(c3ccccn3)CC2)c(=O)c2cc3sccc3n12,,inactive: -1.67%
CC[n+]1c(/C=C/c2ccc(OC)c(OC)c2)ccc2ccccc21,"inconclusive [inhibitor, single point]",
O=C(c1nn2c(C(F)(F)F)cc(-c3ccco3)nc2c1Br)N1CCCc2ccccc21,active: 11.6 µM,
COCCN(C(=O)COC(=O)/C=C/c1ccc(Cl)c(Cl)c1)c1c(N)n(Cc2ccccc2)c(=O)[nH]c1=O,active: 18.4 µM,

Structure (SMILES),Potency,"activity change, negative = growth inhibition"
Cc1ccc(C(=O)Nc2nc(=O)n(C)s2)cc1,,inactive: -12.3%
O=C(NCc1ccc(Cl)cc1)C1CCN(S(=O)(=O)Cc2ccccc2)CC1,,inactive: -1.41%
COc1ccc(-c2cc(C(F)(F)F)nc(SCC(=O)N3CCC(C)CC3)n2)cc1,"inconclusive [inhibitor, single point]",
O=C(NNC(=O)c1cnccn1)c1cccc([N+](=O)[O-])c1,"inconclusive [inhibitor, single point]",
Cc1cc(=O)n(C)c2ccccc12,,inactive: 10.9%
CCOC(=O)C(=NC(C)(C)C)NNc1cc(Cl)ccc1Cl,"inconclusive [inhibitor, full curve, poor fit]",
Cc1csc(NC(=O)C2CCCN2C(=O)OCC(C)C)n1 (centres undefined),,inconclusive: -31.4% [inhibitor]
COc1ccc(CCNC(=O)c2ccc3nc(N4CCOCC4)sc3c2)cc1OC,"inconclusive [inhibitor, single point]",
Cc1onc(-c2c(F)cccc2Cl)c1C(=O)N1CCN(c2ncc(Br)cn2)CC1,,inconclusive: -34.1% [inhibitor]
O=C(COc1ccccc1)Nc1ccc(S(=O)(=O)N2CCOCC2)cc1,,inactive: -24.6%
O=C(CN1C(=O)c2cccc3cccc1c23)Nc1cccnc1,,inconclusive: -30.9% [inhibitor]
CC(=O)Nc1cc(-c2ccccc2Cl)cn2c(-c3ccc(S(C)(=O)=O)cc3)cnc12,"inconclusive [inhibitor, single point]",
COc1ccc(NS(=O)(=O)c2cccc(C(=O)N3CCCCCCC3)c2)cc1,active: 14.6 µM,
Cc1ccc(S(=O)(=O)c2c(N)n(-c3ccccc3)c3nc4ccccc4nc23)cc1,"inconclusive [inhibitor, single point]",
CCOC(=O)N1CCN(C(=O)c2cccc(S(=O)(=O)Nc3ccc(F)cc3)c2)CC1,"inconclusive [inhibitor, single point]",
CN(Cc1ccco1)C(=O)Cn1cc(S(=O)(=O)N2CCCC2)c(S(=O)(=O)N2CCCC2)c1,"inconclusive [inhibitor, single point]",
COc1cc(CNC(=O)Nc2nnc([C@H]3C[C@H](O)[C@@H](CO)O3)s2)cc(OC)c1OC,,inactive: -0.521%
O=C(NCc1cccnc1)c1ccc2c(c1)N(Cc1ccccc1)CCS2,"inconclusive [inhibitor, single point]",
COc1ccccc1C(=O)N[C@@H]1c2ccccc2C2(CCN(C(=O)c3ccnn3C)CC2)[C@H]1OC,"inconclusive [inhibitor, single point]",
COc1ccc(CCNC(=O)c2ccc(NC(=O)CC3SC(N4CCCCC4)=NC3=O)cc2)cc1 (centres undefined),"inconclusive [inhibitor, partial curve]",
COc1cc(C(O)c2nc(-c3cccc4cccnc34)cs2)ccc1F (centres undefined),"inconclusive [inhibitor, single point]",
COC(=O)[C@@]12C[C@@H](CC(=O)N3CCSCC3)C(=O)N(CCc3ccc(OC)c(OC)c3)C1=CCC(C)(C)C2,"inconclusive [inhibitor, single point]",
